Results from the supplement of paper PMC12355420.
Structures can show the parent of a compound that is named as a salt. The list shows a part of the results. Rule as the data show it: active = 0.5 or less and inactive = the rest. Repeats are few or missing, and single values can be far off.

Columns and labels:
Details in all cases: 50 µM; 24 h
[1] = tested on: HeLa VPS33A reporter cells; test: relative cell viability (CellMask signal) vs DMSO (fraction of DMSO); higher = less cytotoxic;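 also: primary screen of an FDA-approved drug library in HeLa reporter cells in 96-well format, CellMask signal normalized to DMSO-treated wells set as 1, under 0.5 deemed highly cytotoxic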
[2] = tested on: HeLa VPS33A R498W KI + HA-SDC1-FLAG; test: relative GAG core protein HA-SDC1 amount per cell number vs DMSO (fraction of DMSO); higher = more SDC1 (GAG core protein);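 also: HA-SDC1 level read out by In-Cell Western staining with an anti-HA antibody against the N-terminal tag, screening FDA-approved library drugs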
[3] = tested on: HeLa VPS33A KO + NLuc-VPS33A R498W; test: relative mutant VPS33A R498W amount (NanoLuc luminescence) vs DMSO (fraction of DMSO); HeLa model of a glycosaminoglycan (GAG) storage disease; KI is knock-in and KO knock-out; SDC1 is syndecan 1; higher = higher mutant VPS33A level;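 also: screen of an FDA-approved drug library, NanoLuc luminescence read after lysing the treated cells, taken as a measure of mutant VPS33A protein stability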

Compound	relative cell viability [1]	relative GAG core protein HA-SDC1 amount per cell number [2]	relative mutant VPS33A R498W amount [3]
CC(C(=O)O)c1ccc(C(=O)c2cccs2)cc1 (centres undefined) [Suprofen]	0.962	inactive: 0.862	1.46
C=CC(=O)Nc1cccc(Nc2nc(Nc3ccc(N4CCN(C(C)=O)CC4)cc3OC)ncc2C(F)(F)F)c1	1.02	inactive: 0.542	0.356
CS(=O)(=O)CCNCc1ccc(-c2ccc3ncnc(Nc4ccc(OCc5cccc(F)c5)c(Cl)c4)c3c2)o1 [Lapatinib]	1.23	inactive: 1.06	0.545
N[C@@H](CC(=O)N1CCn2c(nnc2C(F)(F)F)C1)Cc1cc(F)c(F)cc1F [Sitagliptin phosphate monohydrate]	1.27	inactive: 0.94	0.765
C/C(=C\C(=O)OCCCCCCCCC(=O)O)C[C@@H]1OC[C@H](C[C@@H]2O[C@H]2[C@@H](C)[C@H](C)O)[C@@H](O)[C@H]1O [Mupirocin]	1.14	inactive: 0.678	1.17
CCC[C@@H]1C[C@@H](C(=O)N[C@@H]([C@H]2O[C@H](SC)[C@H](O)[C@@H](O)[C@H]2O)[C@H](C)Cl)N(C)C1 [Clindamycin HCl]	1.09	inactive: 0.764	1.24
CCCCC[C@H](O)/C=C/[C@H]1[C@H](O)CC(=O)[C@@H]1C/C=C\CCCC(=O)O [Prostaglandin E2]	1.21	inactive: 0.653	1.77
N[C@@H](Cc1c[nH]c2ccc(O)cc12)C(=O)O [5-hydroxy-L-Tryptophan]	1.03	inactive: 0.792	1.33
CCOC(=O)c1ccc(C#Cc2ccc3c(c2)C(C)(C)CCS3)nc1 [Tazarotene]	0.676	inactive: 0.579	0.579
COCCCOc1cc(C[C@@H](C[C@H](N)[C@@H](O)C[C@H](C(=O)NCC(C)(C)C(N)=O)C(C)C)C(C)C)ccc1OC [Aliskiren]	1.07	inactive: 1.5	1.59
O=c1[nH]cnc2nc[nH]c12 [Hypoxanthine]	1.07	inactive: 0.863	1.1
COc1cc(Cc2cnc(N)nc2N)cc(OC)c1OC [Trimethoprim]	0.983	inactive: 0.831	1.29
CC[C@H]1[C@@H](O)[C@@H]2[C@H](CC[C@]3(C)[C@@H]([C@H](C)CCC(=O)O)CC[C@@H]23)[C@@]2(C)CC[C@@H](O)C[C@@H]12 [Obeticholic Acid]	0.686	active: 0.269	0.811
